The source of these data is patent US20260091062A1 (Hoffmann-La Roche, published 2026).

Test [1] deals with P329G-tag (IL15Rα membrane anchor): anti-P329G VH3VL1 scFv - IL15Ra stalk/TMD/ICD. Put plainly: cell-based or functional assay.
Target sequence (chain, as listed by the source P329G P329G P329G P329G): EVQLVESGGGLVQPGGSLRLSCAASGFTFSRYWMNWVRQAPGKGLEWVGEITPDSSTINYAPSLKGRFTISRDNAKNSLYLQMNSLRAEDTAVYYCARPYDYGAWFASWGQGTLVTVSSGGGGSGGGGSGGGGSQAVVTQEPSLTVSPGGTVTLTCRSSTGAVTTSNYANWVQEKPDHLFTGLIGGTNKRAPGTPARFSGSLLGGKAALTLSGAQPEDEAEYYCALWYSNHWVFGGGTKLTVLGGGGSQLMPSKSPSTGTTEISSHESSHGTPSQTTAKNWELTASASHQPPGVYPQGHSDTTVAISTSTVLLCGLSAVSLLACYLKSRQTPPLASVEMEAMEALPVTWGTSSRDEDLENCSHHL
The target in test [2] is P329G-CAR (CD28): anti-P329G VH3VL1 scFv - CD8a stalk - TMD - CD28 ICD - CD3zeta ICD. Put plainly: cell-based or functional assay.
Target sequence (chain, as listed by the source P329G P329G P329G P329G): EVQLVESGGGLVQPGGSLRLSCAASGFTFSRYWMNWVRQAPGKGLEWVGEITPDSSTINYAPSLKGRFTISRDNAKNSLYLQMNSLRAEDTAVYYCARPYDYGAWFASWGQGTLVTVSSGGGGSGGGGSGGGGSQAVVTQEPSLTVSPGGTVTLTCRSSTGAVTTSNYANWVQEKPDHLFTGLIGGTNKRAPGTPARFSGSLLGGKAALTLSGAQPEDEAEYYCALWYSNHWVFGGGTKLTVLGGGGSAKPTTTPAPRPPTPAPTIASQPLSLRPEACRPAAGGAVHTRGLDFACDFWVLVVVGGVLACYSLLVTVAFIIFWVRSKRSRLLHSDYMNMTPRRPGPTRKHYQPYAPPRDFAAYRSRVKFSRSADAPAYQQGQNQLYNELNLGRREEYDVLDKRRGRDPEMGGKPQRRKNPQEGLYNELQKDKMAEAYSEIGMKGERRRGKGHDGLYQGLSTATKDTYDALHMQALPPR

B1: PD1-IL2v (PD-1-targeted IgG-IL-2 qm fusion protein, Fc P329G LALA) (other)
heavy 1: EVQLLESGGGLVQPGGSLRLSCAASGFSFSSYTMSWVRQAPGKGLEWVATISGGGRDIYYPDSVKGRFTISRDNSKNTLYLQMNSLRAEDTAVYYCVLLTGRVYFALDSWGQGTLVTVSSASTKGPSVFPLAPSSKSTSGGTAALGCLVKDYFPEPVTVSWNSGALTSGVHTFPAVLQSSGLYSLSSVVTVPSSSLGTQTYICNVNHKPSNTKVDKKV[human IgG1 Fc with changes not written out]GGGGSGGGGSGGGGSAPASSSTKKTQLQLEHLLLDLQMILNGINNYKNPKLTRMLTAKFAMPKKATELKHLQCLEEELKPLEEVLNGAQSKNFHLRPRDLISNINVIVLELKGSETTFMCEYADETATIVEFLNRWITFAQSIISTLT
heavy 2: EVQLLESGGGLVQPGGSLRLSCAASGFSFSSYTMSWVRQAPGKGLEWVATISGGGRDIYYPDSVKGRFTISRDNSKNTLYLQMNSLRAEDTAVYYCVLLTGRVYFALDSWGQGTLVTVSSASTKGPSVFPLAPSSKSTSGGTAALGCLVKDYFPEPVTVSWNSGALTSGVHTFPAVLQSSGLYSLSSVVTVPSSSLGTQTYICNVNHKPSNTKVDKKVEPKSCDKTHTCPPCPAPEAAGGPSVFLFPPKPKDTLMISRTPEVTCVVVDVSHEDPEVKFNWYVDGVEVHNAKTKPREEQYNSTYRVVSVLTVLHQDWLNGKEYKCKVSNKALGAPIEKTISKAKGQPREPQVCTLPPSRDELTKNQVSLSCAVKGFYPSDIAVEWESNGQPENNYKTTPPVLDSDGSFFLVSKLTVDKSRWQQGNVFSCSVMHEALHNHYTQKSLSLSP
light: DIVMTQSPDSLAVSLGERATINCKASESVDTSDNSFIHWYQQKPGQSPKLLIYRSSTLESGVPDRFSGSGSGTDFTLTISSLQAEDVAVYYCQQNYDVPWTFGQGTKVEIKRTVAAPSVFIFPPSDEQLKSGTASVVCLLNNFYPREAKVQWKVDNALQSGNSQESVTEQDSKDSTYSLSSTLTLSKADYEKHKVYACEVTHQGLSSPVTKSFNRGEC
Turning to B1, in test [1], the “pSTAT5 cis-targeting effect (GFP- vs GFP+ cells)” value came out at 75 fold; the “pSTAT5 cis-targeting window (GFP+ vs GFP- cells), PD-1 low T cells” value is around 100 fold; the “pSTAT5 window (GFP+ vs GFP- cells), not reactivated PD-1 low T cells” value is around 100 fold. In test [2], the “pSTAT5 cis-targeting window (GFP+ vs GFP- cells)” value was around 100 fold.

B2: PD1-IL2vQ126T (other)
heavy 1: EVQLLESGGGLVQPGGSLRLSCAASGFSFSSYTMSWVRQAPGKGLEWVATISGGGRDIYYPDSVKGRFTISRDNSKNTLYLQMNSLRAEDTAVYYCVLLTGRVYFALDSWGQGTLVTVSSASTKGPSVFPLAPSSKSTSGGTAALGCLVKDYFPEPVTVSWNSGALTSGVHTFPAVLQSSGLYSLSSVVTVPSSSLGTQTYICNVNHKPSNTKVDKKV[human IgG1 Fc with changes not written out]GGGGSGGGGSGGGGSAPASSSTKKTQLQLEHLLLDLQMILNGINNYKNPKLTRMLTAKFAMPKKATELKHLQCLEEELKPLEEVLNGAQSKNFHLRPRDLISNINVIVLELKGSETTFMCEYADETATIVEFLNRWITFATSIISTLT
heavy 2: B1 heavy 2
light: B1 light
Take B2: the “pSTAT5 cis-targeting window (GFP+ vs GFP- cells)” value in test [2] is around 800 fold.
